The campaign covered roughly 39,000 compounds. About 220 (0.56%) showed activity. This is one part of the list.
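Also: static incubation at 37 °C against the wild-type strain, values averaged over two biological replicates.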

The test system of this experiment is Escherichia coli K-12 BW25113. Nature of the experiment: relative growth (OD600 normalised to plate interquartile mean) (fraction); higher = less growth inhibition, active = 0.2 or less. Conditions: 50 µM; LB; incubation time: overnight (16-24 h).
`O=C1N[C@@H](c2ccccc2)COCc2cn(nn2)CC[C@@H](Cc2ccc(C(F)(F)F)cc2)C(=O)N[C@@H](c2ccccc2)COCc2cn(nn2)CC[C@H]1Cc1ccc(C(F)(F)F)cc1`: the relative growth was inactive: 0.991.

Take `Cn1nnc2c1[C@H](COCC1CC1)CNC2`: the relative growth is inactive: 1.04.

As to `CC[C@@]1(C)OC(=O)N(C)C1=O`, the relative growth is inactive: 0.996.

For the compound `C[C@H](CO)N1C[C@H](C)[C@H](CN(C)S(=O)(=O)c2ccc(F)cc2)Oc2c(NC(=O)C3CCOCC3)cccc2C1=O`, the relative growth was inactive: 0.985.

For the compound `O[C@H]1CCN(c2nccs2)C1`, the relative growth was inactive: 1.01.

Turning to `CC(C)NC(=O)N(C)C[C@H]1OCCCC[C@H](C)Oc2ccc(NC(=O)Nc3ccc(C(F)(F)F)cc3)cc2C(=O)N([C@@H](C)CO)C[C@H]1C`, the relative growth was inactive: 1.01.

On to `C[C@H]1CN([C@@H](C)CO)C(=O)Cc2cc(NC(=O)CCC(F)(F)F)ccc2O[C@@H]1CN(C)Cc1ccc(C(=O)Nc2ccccc2N)cc1`, for which the relative growth was inactive: 0.99.

For `CCOC(=O)CNc1n[nH]c(=O)[nH]c1=O`, the relative growth was inactive: 1.04.

With `CCNC(=O)CC[C@H](N)C(=O)O`, the relative growth is inactive: 0.98.

Regarding `CO[C@H]1CN(C)C(=O)c2cc(NS(=O)(=O)CC(F)(F)F)ccc2OC[C@@H](C)N(Cc2ccccn2)C[C@H]1C`, the relative growth is inactive: 1.01.

Consider `COc1cccc(S(=O)(=O)N2C[C@@H](O)COC[C@H]3O[C@H](CC(=O)N4CCN(C)CC4)CC[C@@H]32)c1`, for which the relative growth is inactive: 1.

On to `C[C@@H]1CN([C@H](C)CO)C(=O)c2cccc(NS(=O)(=O)c3cccs3)c2O[C@@H]1CN(C)C(=O)Nc1cccc2ccccc12`, for which the relative growth was inactive: 1.01.

With `C[C@@H]1CN([C@H](C)CO)C(=O)c2cc(NS(=O)(=O)c3ccccc3)ccc2O[C@@H](C)CCCCO[C@@H]1CN(C)C(=O)C1CCCCC1`, the relative growth was inactive: 1.01.

As for `CC(C)Cn1c(=O)n(C)c(=O)c2[nH]cnc21`, the relative growth was inactive: 1.02.

For `C[C@@H]1CN([C@H](C)CO)C(=O)c2c(c3ccccc3n2C)-c2ccccc2CO[C@H]1CN(C)C(=O)c1cc(Cl)cc(Cl)c1`, the relative growth was inactive: 1.02.

As to `C[C@H](CO)N1C[C@H](C)[C@H](CN(C)S(=O)(=O)c2ccc(F)cc2)Oc2cc(C#Cc3ccc(F)cc3)ccc2S1(=O)=O`, the relative growth is inactive: 1.05.

As to `C[C@@H]1CCCCO[C@@H](CN(C)Cc2ccc3c(c2)OCO3)[C@H](C)CN([C@H](C)CO)C(=O)c2cc(NS(=O)(=O)c3ccc(Cl)cc3)ccc2O1`, the relative growth is inactive: 1.02.

Take `C[C@H](CO)N1C[C@H](C)[C@H](CN(C)S(=O)(=O)c2cn(C)cn2)Oc2cc(C#Cc3ccc(F)cc3)ccc2S1(=O)=O`: the relative growth is inactive: 1.02.

`C[C@@H]1CN([C@H](C)CO)C(=O)c2cc(NC(=O)Nc3ccc(C(F)(F)F)cc3)ccc2O[C@@H](C)CCCCO[C@H]1CN(C)C(=O)Nc1ccc(F)cc1`: the relative growth was inactive: 1.01.

Take `C[C@@H]1CCCCO[C@@H](CN(C)C(=O)Nc2ccccc2)[C@@H](C)CN([C@H](C)CO)C(=O)c2cc(NC(=O)CCC(F)(F)F)ccc2O1`: the relative growth is inactive: 0.997.

With `Cc1ccc(S(=O)(=O)Nc2ccc3c(c2)C(=O)N([C@H](C)CO)C[C@H](C)[C@H](CN(C)Cc2ccccc2)OCCCC[C@H](C)O3)cc1`, the relative growth was inactive: 1.02.

For `O=C(N[C@@H]1CC[C@@H](CCn2cc(C3(O)CCCC3)nn2)O[C@@H]1CO)C1CCOCC1`, the relative growth is inactive: 0.985.

Take `C[C@H]1CN([C@@H](C)CO)C(=O)c2cc(-c3ccc(C(=O)N(C)C)cc3)cnc2O[C@H]1CN(C)C(=O)c1cccnc1`: the relative growth was inactive: 1.04.

As for `O=C(C[C@@H]1CC[C@H]2[C@@H](COC[C@@H](O)CN2S(=O)(=O)c2ccccc2)O1)N1CCOCC1`, the relative growth was inactive: 0.98.

On to `C[C@@H]1CN([C@H](C)CO)C(=O)c2cccc(NC(=O)c3nc4ccccc4s3)c2O[C@@H]1CN(C)C(=O)Nc1ccc(F)cc1`, for which the relative growth is inactive: 1.02.

For the compound `COc1ccc(C(=O)Nc2ccc3c(c2)C(=O)N(C)[C@H]2CC[C@@H](CC(=O)NCC4CC4)O[C@@H]2CO3)cc1`, the relative growth is inactive: 0.979.

Consider `C[C@@H]1CCCCO[C@@H](CN(C)Cc2ccc(Cl)c(Cl)c2)[C@H](C)CN([C@@H](C)CO)C(=O)c2cc(NS(=O)(=O)c3ccc(F)cc3)ccc2O1`, for which the relative growth is inactive: 1.06.

Consider `C[C@@H]1CN([C@@H](C)CO)C(=O)c2cc(NC(=O)Nc3ccccc3)ccc2O[C@@H](C)CCCCO[C@@H]1CN(C)C(=O)Nc1ccccc1`, for which the relative growth is inactive: 1.01.

As for `C[C@H]1CN([C@@H](C)CO)C(=O)Cc2cc(NC(=O)Cc3ccccc3)ccc2O[C@@H]1CN(C)S(C)(=O)=O`, the relative growth was inactive: 1.02.

Regarding `CC1(C)C(C(=O)O)N2C(=O)CC2S1(=O)=O` (configuration not stated), the relative growth is inactive: 0.358.

Consider `CN1C[C@@H](O)COC[C@@H]2O[C@H](CC(=O)N3CCN(c4ccccc4)CC3)CC[C@H]21`, for which the relative growth is inactive: 1.02.

With `CC(C)N1C(=O)C[C@@](C(=O)NCCN2CCOCC2)(c2ccc([N+](=O)[O-])cc2)[C@H]1c1ccc(CO)cc1`, the relative growth is inactive: 0.895.

Take `C[C@@H]1CCCCO[C@@H](CN(C)Cc2ccncc2)[C@@H](C)CN([C@@H](C)CO)C(=O)c2cc(NC(=O)C3CCCCC3)ccc2O1`: the relative growth is inactive: 0.985.

As for `C[C@@H]1CCCCO[C@H](CN(C)S(=O)(=O)c2cccs2)[C@@H](C)CN([C@H](C)CO)C(=O)c2cc(NC(=O)CCC(F)(F)F)ccc2O1`, the relative growth is inactive: 0.992.

With `O=C(C[C@H]1C=C[C@H](NC(=O)c2cccnc2)[C@H](CO)O1)NCCN1CCCCC1`, the relative growth is inactive: 1.01.

Regarding `Nc1ncnc2c1c(I)cn2[C@H]1O[C@@H](CO)[C@@H](O)[C@@H]1O`, the relative growth was inactive: 0.926.

Turning to `CCOC(=O)Cn1c(=O)c2c(OC)ccnc2n(C)c1=O`, the relative growth was inactive: 0.971.

With `O=C1NC(=S)N/C1=C\c1ccco1`, the relative growth was inactive: 1.

For the compound `COCC(=O)N1C[C@@H](C)[C@@H](OC)CN(C)C(=O)c2cc(NC(=O)Nc3cccc(F)c3)ccc2OC[C@H]1C`, the relative growth is inactive: 0.986.

As for `COCC#Cc1ccc2c(c1)O[C@@H](CN(C)C(=O)Nc1ccccc1F)[C@@H](C)CN([C@H](C)CO)S2(=O)=O`, the relative growth was inactive: 0.995.

As to `C[C@H]1CN([C@@H](C)CO)C(=O)c2cc(NS(=O)(=O)c3ccccc3)ccc2O[C@@H]1CN(C)S(C)(=O)=O`, the relative growth was inactive: 0.998.

For `C[C@@H]1CN([C@H](C)CO)C(=O)c2cc(NC(=O)Nc3ccccc3)ccc2O[C@H]1CN(C)S(C)(=O)=O`, the relative growth is inactive: 1.

As for `Cc1ccc(CNc2ccccn2)o1`, the relative growth was inactive: 1.

For the compound `O=C1COC2(CCN(C(=O)c3ccno3)CC2)CN1`, the relative growth is inactive: 1.

Take `C[C@@H]1CN([C@@H](C)CO)C(=O)c2cc(NC(=O)Cn3cnnn3)ccc2O[C@H]1CN(C)C(=O)Nc1ccccc1`: the relative growth was inactive: 0.987.

With `C=CCOC(=O)[C@H]1[C@@H]2C(=O)O[C@@H](c3ccccc3)[C@@H](c3ccccc3)N2[C@@H](c2ccc(OCCOC(=O)[C@H]3C[C@H]4C(=O)N[C@@H](CC(C)C)C(=O)N4[C@H]3c3cccc(OCCO)c3)cc2)[C@]12C(=O)Nc1ccc(I)cc12`, the relative growth was inactive: 1.06.

With `C[C@@H]1CN([C@H](C)CO)C(=O)Cc2cc(NC(=O)CCN3CCOCC3)ccc2O[C@H]1CN(C)Cc1ccc(C(=O)O)cc1`, the relative growth was inactive: 1.03.

Regarding `CCN(CC)CCOCCOC(=O)C1(c2ccccc2)CCCC1.O=C(O)CC(O)(CC(=O)O)C(=O)O`, the relative growth was inactive: 1.08.

On to `Cc1noc(C)c1S(=O)(=O)N(C)C[C@@H]1Oc2ccc(NS(=O)(=O)c3cccs3)cc2CC(=O)N([C@H](C)CO)C[C@H]1C`, for which the relative growth is inactive: 0.964.

With `Cc1cc(C)n(N)c(=O)c1C(=O)O`, the relative growth was inactive: 1.05.

`C[C@@H]1CCCCO[C@H](CN(C)Cc2ccc3c(c2)OCO3)[C@@H](C)CN([C@@H](C)CO)C(=O)c2cc(NC(=O)Nc3cccc4ccccc34)ccc2O1`: the relative growth is inactive: 0.979.

For the compound `C[C@@H]1CCCCO[C@@H](CN(C)C(=O)Nc2ccc(C(F)(F)F)cc2)[C@@H](C)CN([C@H](C)CO)C(=O)c2cc(NC(=O)C3CCCCC3)ccc2O1`, the relative growth was inactive: 0.993.

For the compound `O=C(Nc1ccc(C(F)(F)F)cc1)Nc1ccc2c(c1)[C@@H]1C[C@@H](CC(=O)N3CCc4ccccc4C3)O[C@H](CO)[C@@H]1O2`, the relative growth was inactive: 1.04.

For `COc1ccc(NC(=O)N(C)C[C@@H]2Oc3c(NC(=O)c4ccc(-c5nccs5)cc4)cccc3C(=O)N([C@H](C)CO)C[C@@H]2C)cc1`, the relative growth was inactive: 0.996.

For `CC(C)(CO)[C@H](O)C(=O)NCCC(=O)NCCSSCCNC(=O)CCNC(=O)[C@H](O)C(C)(C)CO`, the relative growth is inactive: 0.988.

Consider `C[C@H](CO)N1C[C@H](C)[C@H](CN(C)S(=O)(=O)c2cn(C)cn2)Oc2c(NS(=O)(=O)c3ccc(F)cc3)cccc2C1=O`, for which the relative growth is inactive: 0.984.

For the compound `C[C@@H]1CN([C@H](C)CO)C(=O)c2cc(NS(=O)(=O)c3ccc(F)cc3)ccc2O[C@H]1CN(C)Cc1ccc(-c2ccccc2)cc1`, the relative growth was inactive: 0.981.

In the case of `CCS(=O)(=O)NCCc1csc(C)n1`, the relative growth is inactive: 0.963.

Take `C[C@H]1CCCCO[C@@H](CN(C)Cc2ccncc2)[C@@H](C)CN([C@@H](C)CO)C(=O)c2cc(NC(=O)C3CCCCC3)ccc2O1`: the relative growth was inactive: 0.976.

`COc1ccccc1C#Cc1cnc2c(c1)C(=O)N([C@@H](C)CO)C[C@H](C)[C@@H](CN(C)C(=O)CN(C)C)O2`: the relative growth is inactive: 1.04.

As for `C[C@H](CO)N1C[C@H](C)[C@H](CN(C)Cc2ccc(C(F)(F)F)cc2)Oc2c(NC(=O)C3CCCCC3)cccc2C1=O`, the relative growth was inactive: 0.956.

Turning to `C[C@@H]1CN([C@H](C)CO)C(=O)Cc2cc(NS(=O)(=O)c3ccccc3)ccc2O[C@H]1CN(C)Cc1ccc2c(c1)OCO2`, the relative growth was inactive: 1.
